From patent US11000038B2, “Pyridone compounds and agricultural and horticultural fungicides containing the same as active ingredients” (priority 2017, dated 2021)

Experiments:
[1] = test system: rice blast fungi (Magnaporthe grisea); assay type: in vivo; settings: spray treatment of rice plants; for Test A control value class (rice blast): control value=100{1-(n/3)}; for Test A control value: rice blast
[2] = test system: tomato late blight fungi (Phytophthora infestans); assay type: in vivo; settings: spray treatment of tomato plants; for Test F control value class (tomato late blight): control value=100{1-(n/3)}; for Test F control value: tomato late blight
[3] = test system: cucumber anthracnose fungi (Colletotrichum orbiculare); assay: Test Example H: cucumber anthracnose, spray treatment of cucumber plants; settings: for Test H control value class (cucumber anthracnose): 250 ppm spray, 2.5 ml/pot, cucumber Sagami Hanjiro, 6 to 10 days from inoculation; for Test H control value: cucumber anthracnose, 250 ppm spray (2.5 ml/pot), 6 to 10 days after inoculation

O=c1c(Cl)cn(-c2cc(F)ccc2Cl)c(-c2c(F)cccc2F)c1Br [Compound 109]
Test A control value class (rice blast) [1]: H (H shows the control value of more than 50%)
Test F control value class (tomato late blight) [2]: L (L shows the control value of 50% or less)
Test H control value class (cucumber anthracnose) [3]: H (H shows the control value of more than 50%)

Cc1ccccc1-n1cc(C)c(=O)c(C)c1-c1c(F)cncc1F [Compound 251]
Test A control value [1]: H (H shows the control value of more than 50%)
Test F control value [2]: L (L shows the control value of 50% or less)
Test H control value [3]: H (H shows the control value of more than 50%)

O=c1c(Br)cn(CCc2ccccc2)c(-c2c(F)cc(F)cc2F)c1Br [Compound 101]
Test A control value class (rice blast) [1]: L (L shows the control value of 50% or less)
Test F control value class (tomato late blight) [2]: L (L shows the control value of 50% or less)
Test H control value class (cucumber anthracnose) [3]: L (L shows the control value of 50% or less)

Cc1cn(-c2ccccc2)c(-c2c(F)cccc2F)c(C)c1=O [Compound 360]
Test A control value [1]: H (H shows the control value of more than 50%)
Test F control value [2]: L (L shows the control value of 50% or less)
Test H control value [3]: H (H shows the control value of more than 50%)

Cc1c(-c2c(F)cc(F)cc2F)n(C(C)C(C)C)cc(Cl)c1=O (stereo not drawn) [Compound 156]
Test A control value class (rice blast) [1]: H (H shows the control value of more than 50%)
Test F control value class (tomato late blight) [2]: L (L shows the control value of 50% or less)
Test H control value class (cucumber anthracnose) [3]: H (H shows the control value of more than 50%)

COc1cc(F)c(-c2c(CC(F)(F)F)c(=O)c(Br)cn2-c2ccccc2C)c(F)c1 [Compound 356]
Test A control value [1]: H (H shows the control value of more than 50%)
Test F control value [2]: L (L shows the control value of 50% or less)
Test H control value [3]: H (H shows the control value of more than 50%)

CC(C)Cn1cc(Cl)c(=O)c(Cl)c1-c1c(F)cc(F)cc1F [Compound 107]
Test A control value class (rice blast) [1]: H (H shows the control value of more than 50%)
Test F control value class (tomato late blight) [2]: L (L shows the control value of 50% or less)
Test H control value class (cucumber anthracnose) [3]: H (H shows the control value of more than 50%)

Cc1ccccc1-n1cc(Cl)c(=O)c(C)c1-c1c(F)cc(F)cc1F [Compound 265]
Test A control value [1]: H (H shows the control value of more than 50%)
Test F control value [2]: L (L shows the control value of 50% or less)
Test H control value [3]: H (H shows the control value of more than 50%)
